# ± gives the standard deviation of the averaged measurements. Whole data set: some 4,100 sequences, median “arbitrary fluorescence units” near 780, cut for the highest 2% near 22,000. Some of the results follow.
# Target: T1, ETS1 (UniProt P14921)
# T1 sequence: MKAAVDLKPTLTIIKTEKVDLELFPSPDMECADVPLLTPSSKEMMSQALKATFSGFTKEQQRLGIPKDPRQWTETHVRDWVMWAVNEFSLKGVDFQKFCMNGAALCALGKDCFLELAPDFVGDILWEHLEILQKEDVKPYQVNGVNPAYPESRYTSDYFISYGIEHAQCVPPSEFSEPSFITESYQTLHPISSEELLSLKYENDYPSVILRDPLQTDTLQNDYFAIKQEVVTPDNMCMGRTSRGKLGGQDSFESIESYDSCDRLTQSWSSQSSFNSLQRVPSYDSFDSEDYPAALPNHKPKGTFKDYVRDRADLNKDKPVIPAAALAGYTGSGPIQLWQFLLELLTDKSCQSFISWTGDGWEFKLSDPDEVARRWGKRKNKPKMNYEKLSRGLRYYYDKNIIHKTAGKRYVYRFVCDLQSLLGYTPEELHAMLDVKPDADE
# Test: ETS1 binding intensity (PBM fluorescence), ETS1 alone (arbitrary fluorescence units); higher = stronger binding
# Conditions: ETS1 concentration 1 nM; RUNX1 concentration 0 nM
# Outline: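 Full-length recombinant human ETS1 (1 nM, no RUNX1) was incubated, per standard PBM protocols, on double-stranded Agilent 4 × 180k arrays of 36-bp genomic probes whose RUNX1 partner site was mutated. Bound ETS1 was detected with anti-ETS1 antibody (Cell Signaling Technology 14069) and Alexa488-conjugated secondary antibody, then scanned on a GenePix 4400A. Binding level is spot fluorescence intensity, summarised over replicate spots (four printed per sequence) and not normalised.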
row,Sequence,ETS1 binding intensity
1,ACAACCCGCTCTCTGGCGGGGCTTCCGGTCGGGAGG,6280
2,TTTGTGACTTAACGACACCTACATTTCCCATTTAAG,496
3,TGGGGTTTCCGAGCCGCCCCCGAACTGCGCACCCGA,480
4,TACCGGCGTTAATATAGTAAGGGCGGAAGTTCTCCT,1190
5,GACTGGACAACTTCCTGGTGGAAAAGCGCGACTCTT,7240
6,GGAAAAAAAGCACCCATGCTCCTGGACTTCCCCTTC,322
7,TCGGTGAAGGACGGAAGATGATAGCGACATTTCTTC,428
8,TCTTTAAAACCCGGAAGTTCCTGTCGTTCATACGCT,5970
9,CTGTCAGGATGTTGGCTTGTGAGCCTACAATCCTCT,1170
10,AATCTGTGATTTCCACTGTTAGAATTTACTTCCTCT,627
11,GCCACACCCCCTTCCTGTTGTGTGAGGGGATTCATG,4100
12,CCAGAGCACATCCTACACGCACCCCAACCTGAAAAC,1780
13,TCTTCGGCCCTACCTCAGCCAAGGACTTCCTCAGAA,427
14,AAAAAATGGAGGAAGTTACCTCCAGTGGATTTCTGG,1140
15,GCACTGTGGGAGGAAGTGGGTATGTGCTGAGCTCTT,1530
16,GCTCTGCAGGATGTGGCTGTGAGCGCAGTGAGGAGC,1770
17,CCGCGCCGCTTCCTCCAGACACCTCAAGGGGGTGCT,1650
18,CCACACCTAACGACAGGGGAGGTTGGGAAGTGAAGT,403
19,TCCTCCCTTCGTGGGCGCTTCCTGCGTCGCGAAAGT,1410
20,CAGCCTTGCCGGAAGGCAGAGTTTGGGGTCAGACCG,1140
21,CCATAGCGACCTCGGCCGAGCGAACCGGGAAACGGC,368
22,AATCCTGACCTTAAAAACCTCTGAATGTTTCCTTGT,442
23,ACAACTCCCAGAAGGCATTGGGCGGAACACCACGGT,355
24,TTTAAACCTACAAGCAGGCCCCTGCCCCTTCCTGGA,359
25,AGACCCTGTTGTCACATGGCAGGAAGTCTGCAGGTT,1060

row,Sequence,ETS1 binding intensity
1,TGGCCTGCAGCAGTCACGTGGCCGCGCTTCCTCGCA,302
2,CCGCCGCGACTGCAGGCCTCCGTTCCGCCGGGGTAA,389
3,CCTCAAAACCCGGAAACGCCTTGGGGGGCAGTGTGG,3860
4,GTTGGCGTAATCGCTAGGTTCTCTGGGAAGTGTAGG,389
5,CTAAAGGCAGGGACTACAAACACTTCCTGTTTGTGT,7710
6,CCCAAGCTACGGAAGTTAAACCCCAAACATGAAATC,1450
7,GAGTCACCAACCAGCGCCATGGGCCGGAAGCCACCG,764
8,TGCCGCCTTCATGGTCACCGGAACCCGCTGTCGTAC,414
9,AGGACGGGCGGAAGTGGCTGCAGTGGATGGTGGGAG,6740
10,TCCCTCCGCTGCCGCGGGCCGGAACTTTTGTCGATA,428
11,TTATCGGAACTGCTGGTTGGGCAGGAAGCAGCATGA,817
12,GGTCTTTTCTGTCGTTCTGTCACTTCCTTTGTAAGT,1330
13,AGGCGGGCTGTGATTAAGCAGTGCAGGATGTAGGCT,355
14,GCTCTGGCCGCTCTGCCGCGCGCCGGAAGCAGCCTG,812
15,AATTGCGCATCTTTTCCGCCTACCGTACGGCCCCGC,836
16,ACTCCGCCCCTTCCGCCTGGCGATTCCACTTCTCGG,2170
17,CGGGTTGGGCAGGAAGCAGCATGACAGCAGTGGGTC,1900
18,GCTGCGCTTCTCCGGGATAGACTTCCGGCCGCCGGC,7550
19,AGCTGCTTCCTGCATCTCAGGCCTTTCTCCGGCCTC,6300
20,GAGGAGGCTGTGCTCTGTGTACCCAGGATGTGCTAA,378
21,CACGCCTGCGGAAGATGAAAATCACACGTCATGCAG,453
22,AATGGCGGGAAGTAAGAGGAACGTGGGCCTGACTGC,744
23,GCACTCATTTCCTGTCCCCTGTAGTTTAAAGGTTTT,19700
24,GTGTTGTCAGATACAGCCCAGCCACAGGAAGAGGCA,466
25,ACGGTTCTGACTGGGGTGATTAGGAAACAGGGCCGC,361 ± 49

row,Sequence,ETS1 binding intensity
1,TGCATGCAACAGGAAGTGGGGTGTGATTTGTTCTGG,4820
2,CTAAGTGCTCTTCCTGCCAACCTGTGAGCGCCTGGC,4250
3,CACCGACCGGAAGGGCCCCAAGGATCCCCGCTGCAG,6690
4,CTGAGCAGTGTGCTTGGCCCTCACTTCCTCATCGGC,512
5,GCGCGCTTCCGCCTTCATGCTAGCAACGCCCTCAGT,8980
6,AGGGACGCTGCAGCTGAAGTGGACGGAACTGCCAAG,382
7,GACAGGCGCATCTGCTGAGTCATAAGGATGTGGGCC,339
8,TCCTTTTCCGGTGGCGGCGCCGCGCGTTGGGGTTGT,12100
9,AGGGTTTATGGGACCTGGTGACTCACGGGATGTGGG,332
10,CCATATCTGGCTTCCTAAGGAGGAACCCCAAATCGC,419
11,CCAAGGATATGCTTTTTTTTGGCAAGTCACATCCAA,471
12,GGCTTTCCGTTCAAGGATCTTTTTGGGGTCTTTGTC,2700
13,CGGCTAGGAAATAAAGAGCCTTCTCTCCGAGGTAGG,369
14,GCACACCCCAAAGCCCTATTAAGACAGGAAGCCAGA,685
15,TCCAGCGCCGCTGGGCCAACGAGAGCGCTTCCGGCC,1740
16,GCAGGAAGACAAAGGGCATGGTTTGTCTGGTGCCCC,341
17,GAGCAGGAAGCACCCCCAGCACAGGCCTGAGGTGAG,1330
18,GACAAGATTGCAGGTGGCAACCCCATCCGGTTTGTT,1400
19,TGAAGGAAATTGACGAACACGTGACGCGCTCGGGCG,429
20,CCGGTCGCCGCTGTCCTCTGCGCGGGATGTGGCTCT,411
21,CCTCCTGTGATTAGTTCCTGCCCGATCAGGAAGGAG,932
22,CTCGGCGAACCAGCGGGAGGCGGAACCATTGCACCG,369
23,CACTGCGGAAGCAGTGTAGAGAGGTAGTTATCAGTG,1360
24,CCGGCAGGAAGTTAGCATGGGCGGACGACACGGGGG,6810
25,TCAGTGCTGTCAGGGAGTCTGTACTTCCTGGATGGC,1170

row,Sequence,ETS1 binding intensity
1,TAGATCTTCCTGGACGTGCCTCTCCCCTTCGGCCTG,904
2,TGAGCCCTACTTCCGGTGGTGCTGTGCTCTGCCCCT,29700
3,AAACTCACACGGTCCTCCTTAAGGAGCTTCCGGGGC,630
4,TGCGCATCGTGCTCATCCGCAGCCGCTAAGTGGGGC,406
5,GACCGTTTCGGGTTCCGCCTGAGCCCTCAGCACAGG,554
6,TAAGAGATTTCCTGTAAAGGTAGCCACCAGCAAAGA,8830
7,GTGCCTCCCGAAAGTTCTGTCCCTTCCGTCCCTTCA,420
8,GTCTTACTTCCTGTCCCCGCCCACCTCGACTGTCTT,22700
9,TGCCATGCCAGCGGCTACTTCCGCCTACCCAGCGGC,4230
10,GCCACTATTTCCTGCCTTCTGGGGCTGAGAGTCCCA,15200
11,TCTGGGCTGACTTCCTGGCTTCGTCCCAGAACTTCA,5930
12,GTGCTTCCTGCTCGCACTGACTCATCGCGCAGCTGA,7710
13,CAAGCACATTACGGAAGAGGCTGACCCCAAATACGA,428
14,GTTGAAATTGAGCTTCCGTTGGTGGATAACCCTCTG,3150
15,AACCAAGCAGCCACTCGAAACTTCCGAGTACACCCT,472
16,GCTCAGGATGCTGTCTGTGCACTGTTAGGTGGCTTG,370
17,ATGCTGGACGTGGCTGCATAGTATTTCCTAACGGAG,361
18,TTAGCCGTATGTGATTTAAAAACTTCCTGTCATTGA,2530
19,CGGGGCTTCCGGCGCGCTGCCTTGAGGGCACGGTAG,12400
20,GCTGGTATGGCAGGAAGTTTCTCACCAGAGTATACT,1630
21,AGGTGTACTTTCCGGGTGCAGACAGCGAATGGATCG,1310
22,TCCTAGCCATTTCCTATCCACCCTGTGCCTAATTTG,4090
23,CCTACGGGGGGTGCGTGGGCGGGACTTCCGGCTCCT,5570
24,ACGATTTTTACACATCCCCGTGCCACCGAATGGCGT,537
25,GCCGTCCCCAGCGCTCGCAGCCACCAGGAAACCCCG,397

row,Sequence,ETS1 binding intensity
1,AATATAGGAAGTGTCAGCTAGGGAACTCAACCCCAA,1120
2,TGATTCTGGGAAATGTCGATCGGCTGTGAGCGGCGC,297
3,GACTGGGGCTCTTCCTCGGGCAGCGGAAGCGGCGCA,1060
4,GACAAGCCATGTAGTTGCTGGCAGGAAATCTCAGTC,419
5,CCGTTGCCGCGCTCGTCTTGCCACTTCCTCTGGAGT,962
6,AATCCACCGGAAACACTTAGACGCCGAAACCCCAGT,9420
7,CCTGGGGTTGCAAAGATGCTCTAACAGGAAGTGGGT,1670
8,CACCCTCACGGAAACAGCTGTGTGTAAGCACCTCCA,585
9,CTCTGGGAAGTGTAGGCGTAGGGCGTCAGGCCCCAG,401
10,CACTTCCCGTGGGAGGATCTTGGGCTGCAGCTAGGG,7090
11,AAACTTCCTCTTTTTAGCGCGCAGGCGCCGAAGGGC,14100
12,GCTGAGGCCGGAAGAGGGTGGGGCCGAGGTGGCTAG,3830
13,TCCTCCATGCAGGAAAACCTCTGTGCTCTGGGAGCT,370
14,GCTGGCATTTCCTTCCCTCTCTGGGAGGTGCTCCGC,2710
15,TACCACCTCAGGATGTCTGAACTACATGCAAGCAGG,496
16,ACCTTACGGGGGCAGTGGGTGGGTGTCACTTCCTCC,866
17,ACAGGCTGTCTGCTTCCGTCAGCGGCTATTCCCTTG,1770
18,ATCAGAGGCGCCACGGACCAGGGGATTTCCTGTGGG,847
19,GTGGAGGAACAGCGAGCCGCCTTCCTCCCCGGCCCA,378
20,CTCTGCAGACAGGAAAGCTAGGTGTGCGTGTACTGT,500
21,AACCCTTCCTGAAAGTAGATGGGGTATAAACCCCAA,1280
22,AAGGCGGTACTTCCTCCAGCATTTGCCGCGAGTTAT,2680
23,CCGCGCTTCCTCGCGCTGTGCGCAGCCGTAGACCGA,821
24,TGAAGTTGGTGTTTTCCGGGGGCGGATTTTCCATTG,1100
25,CCTGCCCTGCGTGGATTTGTCACTTCCTGCTCAGAG,3300

# — the supplement of paper PMC10681739
